In PubChem BioAssay AID2147 (National Center for Advancing Translational Sciences (NCATS), 2009):
In all, about 230,000 compounds went through this assay and about 3,600 (1.6%) were called active. The shares of active, inactive and inconclusive entries below differ from those in the screen. Calls follow the shape of the dose curve; as a rule, active = well fitted inhibition curve with a large enough effect (not every such curve was filed as active); inconclusive = small, poorly fitted or top-dose-only effect, or another doubt; inactive = no such curve, though single readings can be large or run the other way. A potency beside an inconclusive call is a rough fit, not a confirmed value.

Each compound was assayed against Lysine-specific demethylase 4E (Homo sapiens) (UniProt B2RXH2) (assay: qHTS Assay for Inhibitors of Human Jumonji Domain Containing 2E (JMJD2E)). Settings: JMJD2E catalytic domain, FDH-coupled NADH fluorescence (FDH is formaldehyde dehydrogenase); series mostly up to 57.1 µM; activity change, negative = inhibition: at the top concentration.
UniProt B2RXH2, sequence (B2RXH2 whole entry, looked up, the tested form may be a part): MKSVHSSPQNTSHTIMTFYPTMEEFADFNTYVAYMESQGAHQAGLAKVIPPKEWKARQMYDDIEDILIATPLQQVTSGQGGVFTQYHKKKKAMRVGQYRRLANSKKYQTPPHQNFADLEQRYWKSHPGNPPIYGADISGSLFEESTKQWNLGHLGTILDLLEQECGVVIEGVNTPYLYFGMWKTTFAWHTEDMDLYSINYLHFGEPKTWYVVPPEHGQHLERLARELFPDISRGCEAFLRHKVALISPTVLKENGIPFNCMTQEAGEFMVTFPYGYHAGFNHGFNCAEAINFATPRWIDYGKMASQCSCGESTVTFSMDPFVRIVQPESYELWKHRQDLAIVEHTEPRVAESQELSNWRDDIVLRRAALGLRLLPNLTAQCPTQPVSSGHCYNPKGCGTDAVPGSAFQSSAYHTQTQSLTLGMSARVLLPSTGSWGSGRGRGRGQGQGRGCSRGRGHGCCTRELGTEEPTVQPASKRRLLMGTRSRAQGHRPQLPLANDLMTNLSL
Also: nearly all actives have a fitted effect of over 50% in size.
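For activity change, negative = inhibition in this document: 0% = wells with enzyme and -100% = buffer wells without enzyme.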
Potency is read from the fitted curve at half-maximal effect; tags tell the direction and shape of the fitted curve.

Row | Structure (SMILES) | activity change, negative = inhibition | Potency
1 | COC(=O)C1=C(C)[C@H](O)[C@@H](C)[C@](C)(c2cc(OC)c(C)c(OC)c2COc2ccccc2)O1 | inactive: 2.03% | –
2 | O=C(Nc1nnc(COc2ccc(Cl)cc2)s1)c1ccco1 | – | inconclusive: 35.5 µM [inhibitor, single point]
3 | CSc1nnc(-c2cccs2)n1-c1ccccc1 | – | inconclusive: 35.5 µM [inhibitor, single point]
4 | CCCCCC(=O)NNC(=O)Cc1ccc([N+](=O)[O-])cc1 | inactive: -2.81% | –
5 | Cc1ccc(C(=O)NC(=S)Nc2ccc(S(=O)(=O)N(C)c3ccccc3)cc2)cc1 | inactive: 9.21% | –
6 | CCN(CC)CCn1cnc2c([nH]c3cccc(OC)c32)c1=O | – | inconclusive: 14.1 µM [inhibitor, partial curve]
7 | O=C(C[n+]1cc(-c2ccccc2)n2c1CCCCC2)c1ccc(Br)cc1 | inactive: 6.48% | –
8 | O=C(Nc1sc2c(c1C(=O)c1ccccc1)CCCC2)c1cccnc1 | – | inconclusive: 8.91 µM [inhibitor, single point]
9 | O=C(CCCO)CCCCCCCCC[C@H]1N[C@H](CO)[C@@H](O)[C@@H]1O | – | inconclusive: 3.55 µM [inhibitor, single point]
10 | Cc1cc(C)c2c(=O)[nH]c(=O)n(Cc3ccccc3)c2n1 | – | inconclusive: 6.31 µM [inhibitor, single point]
11 | Cc1ccc([N+](=O)[O-])cc1NC(=O)c1ccc2c(c1)OCO2 | inactive: 3.9% | –
12 | O=C1Cn2c(nc3ccccc32)N1c1ccccc1F | inactive: 7.83% | –
13 | Cc1cc(-n2c(=O)c(C#N)cc3c(=O)n4cccc(C)c4nc32)no1 | – | inconclusive: 8.91 µM [inhibitor, partial curve]
14 | C/C(=N\NC(=O)CC#N)C1COc2ccccc2O1 (stereo unspecified) | inactive: -0.925% | –
15 | C=CCn1c(SCc2ccc(F)cc2)nnc1-c1sc2nc(C)cc(C)c2c1N | – | inconclusive: 4.47 µM [inhibitor, full curve]
16 | CCc1c(O)nc(SCC(=O)Nc2ccccc2)n(-c2ccccc2)c1=O | inactive: 2.22% | –
17 | CN(C)/C=C/c1onc(-c2c(Cl)cccc2Cl)c1C#N | – | inconclusive: 39.8 µM [inhibitor, single point]
18 | Cc1ccc(O)c(C(=O)CC(=O)c2ccccc2Cl)c1 | – | inconclusive: 22.4 µM [inhibitor, single point]
19 | O=C1c2ccccc2NC(c2ccccc2)N1c1ccc(O)cc1 (stereo unspecified) | – | inconclusive: 39.8 µM [inhibitor, single point]
20 | COc1ccccc1CNc1ncnc2ccc(-c3ccc(N(C)C)cc3)cc12 | – | inconclusive: 14.1 µM [inhibitor, partial curve]
21 | CC(C)CN(CC(C)C)C(=O)Cc1coc2ccc3ccccc3c12 | – | inconclusive: 25.1 µM [inhibitor, single point]
22 | COCCCNC(=O)c1c(N)n(/N=C/c2cccnc2)c2nc3ccccc3nc12 | – | inconclusive: 11.2 µM [inhibitor, partial curve]
23 | NNC(=O)C(Cc1c[nH]c2ccccc12)NC(=O)c1ccccc1 (stereo unspecified) | inactive: 58.3% | –
24 | CCC(=O)NC(=S)NNC(=O)c1ccc(NC(=O)c2ccccc2)cc1 | – | inconclusive: 39.8 µM [inhibitor, single point]

Row | Structure (SMILES) | activity change, negative = inhibition | Potency
25 | COc1ccc(CCNC(=O)C2CCN(c3ccc(N4CCOCC4)nn3)CC2)c(OC)c1 | – | inconclusive: 31.6 µM [inhibitor, partial curve]
26 | CC(CCc1ccccc1)NC(=O)COC(=O)c1cccc2ccccc12 (stereo unspecified) | – | inconclusive: 31.6 µM [inhibitor, single point]
27 | CC1=C(n2nnc3ccccc32)C(c2ccccc2)C(C#N)=C(N)O1 (stereo unspecified) | – | inconclusive: 39.8 µM [inhibitor, single point]
28 | COc1ccc(-c2nnc(SC(=O)N3c4ccccc4Sc4ccccc43)o2)cc1 | – | inconclusive: 31.6 µM [inhibitor, partial curve]
29 | CC(Nc1ccccc1)c1cccnc1 (stereo unspecified) | – | inconclusive: 44.7 µM [inhibitor, partial curve, poor fit]
30 | Cc1nn2c(-c3cccc(NC(=O)CSc4nc5ccccc5o4)c3)nnc2c2ccccc12 | – | inconclusive: 28.2 µM [inhibitor, single point]
31 | CC1CCCC(C)N1C(=O)c1cc2ncc(CCCl)cn2n1 (stereo unspecified) | inactive: -6.2% | –
32 | CC1(C)CC(=O)C=C(Nc2ccc(C(=O)O)cc2)C1 | – | inconclusive: 39.8 µM [inhibitor, single point]
33 | Fc1ccccc1OCCCN1CCOCC1 | – | inconclusive: 39.8 µM [inhibitor, single point]
34 | Cc1cc(NC(c2cccnc2)c2ccc3cccnc3c2O)no1 (stereo unspecified) | – | inconclusive: 28.2 µM [inhibitor, single point]
35 | CCOc1ccc2nc(N3CCCN(C(=O)Nc4ccccc4C)CC3)c(C#N)cc2c1 | – | inconclusive: 35.5 µM [inhibitor, single point]
36 | Nc1cnccc1C(=O)O | – | active: 0.631 µM
37 | Cc1ccc(CNC(=O)c2cc3c(=O)n4ccccc4nc3n(CC3CCCO3)c2=N)cc1 (stereo unspecified) | – | inconclusive: 10 µM [inhibitor, partial curve]
38 | Cc1ccc(Nc2nnc(SCC(=O)NCCN3C(=O)CSC3=O)s2)cc1C | inactive: -5.02% | –
39 | CCCC(=O)N(C)c1nnc(-c2ccc(OC)cc2)s1 | – | inconclusive: 39.8 µM [inhibitor, single point]
40 | O=c1cc(NCc2ccccc2)nc2ccccn12 | – | inconclusive: 25.1 µM [inhibitor, single point]
41 | CN1CCc2c(sc3c2C(=O)NC(c2cccc(OC(=O)c4cccs4)c2)N3)C1 (stereo unspecified) | – | inconclusive: 28.2 µM [inhibitor, partial curve]
42 | Cc1ccc(S(=O)(=O)N2CCN(C(=O)CSc3nc4ccccc4c(=O)[nH]3)CC2)cc1 | – | inconclusive: 39.8 µM [inhibitor, single point]
43 | O=C(NCc1ccc2c(c1)OCO2)C1CC(c2ccccc2O)=NO1 (stereo unspecified) | inactive: -1.8% | –
44 | N#Cc1c(C#N)c(O)c2ccccc2c1O | – | inconclusive: 28.2 µM [inhibitor, single point]
45 | CC1=CCC(C(=O)O)(C(=O)N/N=C/c2cccnc2)C(c2ccccc2)C1 (stereo unspecified) | – | inconclusive: 39.8 µM [inhibitor, single point]
46 | COCCNC(=O)c1cn(C)c(=O)c2cc(OC)c(OC)cc12 | – | inconclusive: 39.8 µM [inhibitor, single point]
47 | Cc1cccc(NC(=O)c2ccco2)c1C(=O)O | – | inconclusive: 35.5 µM [inhibitor, single point]
48 | O=c1oc2ccc(Br)cc2cc1-c1nc2ccccc2o1 | – | inconclusive: 3.55 µM [inhibitor, full curve]

Row | Structure (SMILES) | activity change, negative = inhibition | Potency
49 | Cc1cccc(-c2cc3nc(C)cc(C)n3n2)c1 | – | inconclusive: 28.2 µM [inhibitor, partial curve]
50 | COCCNC(=O)CSc1nc(-c2ccccc2)c(-c2ccccc2)o1 | – | inconclusive: 25.1 µM [inhibitor, partial curve]
51 | CNc1nc2[nH]c(=O)c3c(c2s1)OC(N)=C(C#N)C3c1cccc(F)c1 (stereo unspecified) | inactive: -0.59% | –
52 | COCn1c(-c2ccccc2)nc2ccccc21 | – | inconclusive: 39.8 µM [inhibitor, single point]
53 | COCCNC(=S)Nc1ccc(S(=O)(=O)Nc2cnc3ccccc3n2)cc1 | – | inconclusive: 28.2 µM [inhibitor, single point]
54 | C=CCN1C(=O)/C(=C\C=C2\N(C)c3ccccc3C2(C)C)SC1=S | inactive: -3.32% | –
55 | Cc1cc(S(=O)(=O)NCc2ccc(S(N)(=O)=O)cc2)c(C)s1 | – | inconclusive: 39.8 µM [inhibitor, single point]
56 | NC(=O)c1ccc2nc(NC(=O)c3ccc(N)cc3)sc2c1 | – | inconclusive: 35.5 µM [inhibitor, single point]
57 | Cc1ccc(NC(=O)N2CCN(c3ccccn3)CC2)cc1 | – | inconclusive: 31.6 µM [inhibitor, partial curve]
58 | Cc1c(Cc2ccccc2)c(NCCCO)n2c(nc3ccccc32)c1C#N | – | inconclusive: 25.1 µM [inhibitor, partial curve]
59 | COC(=O)c1cc(COC(=O)c2ccc3ccccc3n2)oc1C | – | inconclusive: 31.6 µM [inhibitor, single point]
60 | COc1cc(/C=C\C(=O)NCc2ccc3[nH]c(C)cc3c2)cc(OC)c1OC | – | inconclusive: 28.2 µM [inhibitor, single point]
61 | O=C(COC(=O)Cc1cn2ccsc2n1)Nc1nc2ccccc2s1 | inactive: 1.31% | –
62 | CCN(CC)c1ccc(NC(=S)NC(=O)Cc2ccccc2)cc1 | inactive: 1.49% | –
63 | N#Cc1cnn(CC2CCCCC2)c1N | inactive: -11% | –
64 | COC(=O)c1ccccc1NC(=O)Nc1cccc(C)n1 | – | inconclusive: 35.5 µM [inhibitor, single point]
65 | COc1ccccc1/C=C/C(=O)NCC(=O)n1nc(C)cc1C | – | inconclusive: 31.6 µM [inhibitor, partial curve]
66 | C=CCOC(=O)C1=C(C)Nc2nc3ccccc3n2C1c1ccncc1 (stereo unspecified) | – | inconclusive: 28.2 µM [inhibitor, partial curve]
67 | COc1ccc(C(=O)Nc2oc(-c3ccccc3)c(-c3ccccc3)c2C#N)cc1OC | – | inconclusive: 28.2 µM [inhibitor, single point]
68 | Cc1ccc(-n2cc(CN3CCN(Cc4nccn4C)CC3)c(-c3ccc(F)cc3)n2)cc1 | inactive: 6.05% | –
69 | O=C1N=C(N2CCOCC2)S/C1=C\c1ccc(OS(=O)(=O)c2ccccc2)cc1 | – | inconclusive: 35.5 µM [inhibitor, single point]
70 | COC(=O)CCSCC(=O)Nc1ccc(C)c(S(=O)(=O)N2CCCCC2)c1 | inactive: -2.91% | –
71 | CCCc1[nH][nH]c(=O)c1C(c1ccc(Cl)cc1)C(C#N)C#N (stereo unspecified) | inactive: 1.65% | –
